The record followed here is paper PMC6919601, “Identification of Plasmodium dipeptidyl aminopeptidase allosteric inhibitors by high throughput screening” (PLoS ONE, 2019).

In all, about 110,000 compounds went through this assay and about 230 (0.21%) showed an effect of 50% or more. This is one part of the list.
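Further: 30 min substrate incubation versus DMSO and 10 µM JCP410 controls.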

Chain of DPAP1 (Q8IIJ9 whole entry, looked up): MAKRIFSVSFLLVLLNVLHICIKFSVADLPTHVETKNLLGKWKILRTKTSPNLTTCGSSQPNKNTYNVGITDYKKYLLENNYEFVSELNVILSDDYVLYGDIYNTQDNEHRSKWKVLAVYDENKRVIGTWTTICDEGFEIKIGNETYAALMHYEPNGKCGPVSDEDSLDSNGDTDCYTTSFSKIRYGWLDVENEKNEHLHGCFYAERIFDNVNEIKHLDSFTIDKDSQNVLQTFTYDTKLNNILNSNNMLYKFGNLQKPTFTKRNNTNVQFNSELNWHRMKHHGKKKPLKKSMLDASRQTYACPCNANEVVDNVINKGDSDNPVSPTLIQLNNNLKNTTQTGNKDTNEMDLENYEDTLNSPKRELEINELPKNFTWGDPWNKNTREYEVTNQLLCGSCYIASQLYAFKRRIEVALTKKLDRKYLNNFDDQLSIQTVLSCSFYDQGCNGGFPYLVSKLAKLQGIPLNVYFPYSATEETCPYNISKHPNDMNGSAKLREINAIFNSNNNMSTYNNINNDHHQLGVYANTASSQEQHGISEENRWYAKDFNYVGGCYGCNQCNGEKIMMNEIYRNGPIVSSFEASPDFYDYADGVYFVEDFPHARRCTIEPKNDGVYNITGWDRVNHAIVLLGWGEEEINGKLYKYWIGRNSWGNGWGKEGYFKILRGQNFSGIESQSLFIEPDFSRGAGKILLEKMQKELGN

The experiment addresses DPAP1 (Plasmodium falciparum, UniProt Q8IIJ9). Nature of the experiment: primary screen, percent inhibition; read by cleavage of a fluorogenic dipeptide substrate; higher = more effect of the substance. On the set-up: species or system P. falciparum D10 trophozoite lysates; single well.
Take `CCOc1ccccc1CN1CCN(Cc2cc(Br)ccc2O)CC1`: the “% Inhibition @ 10 uM” value is recorded as -5.26%. As to `CC(C)C(C(=O)O)N1C(=O)C2C3CC(C2C1=O)C1C(c2cccnc2)c2sc(O)nc2SC31` (centres unmarked), the “% Inhibition @ 10 uM” value is given as -0.0235%. Take `CCc1cc(=O)oc2c(C)c3c(cc12)CN(Cc1ccco1)CO3`: the “% Inhibition @ 10 uM” value was found to be 0.895%. Next, `O=C(O)CC(c1ccccc1)c1ccc(O)c(Cl)c1Cl` (centres unmarked): -2.91%. To `Cc1cc(C)nc(SCC(=O)Nc2ccc(OC(F)(F)F)cc2)n1` belongs -1.02%; to `Cn1c(=O)c2c(-c3ccc(Cl)cc3)n(-c3cccc(C#N)c3)cc2n(C)c1=O`, 6.67%. Next, `Cc1ccc(C(=O)Nc2cccc(C#N)c2)cc1`: -2.74%; `N#C/C(=C/Nc1ccccc1)c1nc(-c2cccs2)cs1`: -3.15%; `Cc1coc2cc3oc(=O)c(CCC(=O)N4CCCC4)c(C)c3cc12`: 5.68%.

As for `Cc1ccc2nc(NC(=O)C3CCN(S(=O)(=O)c4c(C)nc(O)nc4O)CC3)sc2c1`, the “% Inhibition @ 10 uM” value is -3.87%.

With `C=CCN1C(=O)S/C(=C/c2cc(Cl)c(OCC)c(OC)c2)C1=O`, the “% Inhibition @ 10 uM” value came to 3.29%. To `COc1ccc(C2CC(C(F)(F)F)n3nc(C(N)=O)c(Cl)c3N2)cc1OC` (centres unmarked) belongs 2.44%. To `CCOc1cc(C2C3=C(O)CCCC3=Nc3nc(C(=O)OC)nn32)ccc1OC` (centres unmarked) belongs -5.19%; to `CC(=O)Nc1ccc(S(=O)(=O)NC2CC3CCC2C3)cc1` (centres unmarked), -3.03%. To `COC(=O)c1c(N)n(-c2cccc(C)c2C)c2nc3ccccc3nc12` belongs 1.96%; to `CN1CCN(C(=O)c2nn3c(C(F)(F)F)cc(-c4ccc(Cl)cc4)nc3c2Cl)CC1`, -0.597%. In the case of `Cc1cc(C)c(NC(=O)C2CCCN2Cc2ccccc2)c(C)c1` (centres unmarked), the “% Inhibition @ 10 uM” value came out at 1.57%.

Take `CCOC(=O)c1cnc2c(OC)ccc(C)c2c1O`: the “% Inhibition @ 10 uM” value was -0.386%. To `COc1ccc(NC(=O)C2CCN(C(=O)c3ccc(OC)c(OC)c3)CC2)cc1OC` belongs -1.17%. Next, `Cc1nn(-c2ccccc2)c2c1C(c1c(F)cccc1Cl)C(C#N)=C(N)O2` (centres unmarked): 4.08%; `COc1ccc(OC)c([N+]2=C3SCCCN3C(O)(c3ccc(F)cc3)C2)c1` (centres unmarked): 6.89%. To `CCC(Oc1ccccc1)C(=O)Nc1ccc(N(CC)CC)cc1` (centres unmarked) belongs 0.755%. In the case of `COc1ccccc1-n1c(S)nnc1-c1nn(C)cc1Cl`, the “% Inhibition @ 10 uM” value was determined as 0.64%. Next, `Cc1ccc(C)c(OCC(=O)Nc2ccccc2C(=O)Nc2ccccc2)c1`: -1.6%. To `CCCC1CCc2c(sc(NC(=O)C3C4CCC(C4)C3C(=O)O)c2C(N)=O)C1` (centres unmarked) belongs -4.6%. To `Cc1ccsc1/C=C1/SC(=O)N(CC(=O)N2CCCCC2)C1=O` belongs -5.45%; to `O=C(Nc1ccccn1)c1cc2cc(Br)ccc2oc1=O`, 12.7%; to `CC1CCN(C(=O)c2ccc(NC(=O)c3cccs3)cc2)CC1`, 3.66%. As to `O=S(=O)(c1cccc(-c2csc(-c3ccccc3)n2)c1)N1CCCCC1`, the “% Inhibition @ 10 uM” value is recorded as -1.82%. To `O=C(O)/C=C/C(=O)NCCC1=CCCCC1` belongs 7.49%. Next, `COC(=O)c1ccccc1C(=O)c1cccc2ccccc12`: -2.47%. To `COc1ccc(CCNCc2ccc(C(=O)O)s2)cc1OC` belongs 1.03%; to `COc1cc(C)c(C#N)c(OC)n1`, -3.04%; to `CC1=CC(C)(C)N(C)c2ccc(C3(C)CC(C)(C)N(C)c4ccccc43)cc21` (centres unmarked), 7.15%. In the case of `COCCCNC(=O)c1ccc2c(c1)nc(C)n2-c1ccc(Br)cc1`, the “% Inhibition @ 10 uM” value is given as -0.458%. To `COc1ccc(C2C(c3nc(-c4ccccc4)cs3)=C(N)Oc3c2c(=O)oc2ccccc32)cc1` (centres unmarked) belongs -3.27%; to `CCN1CCCC1CNC(=O)C1c2ccccc2C(=O)N(CCOC)C1c1c[nH]c2ccccc12` (centres unmarked), 5.62%; to `CCCOC(=O)c1ccc(Cn2nnc3sc4c(c3c2=O)CCCC4)cc1`, 2.41%. Next, `CC(C)Nc1nc(Cl)nc(N2CCOCC2)n1`: -2.91%; `Cc1nnc(N2CCC(C(=O)NCCc3cccs3)CC2)c2nn(-c3ccccc3)c(C)c12`: 6.89%; `CCO/C(O)=C1\SCC(C(=O)NCc2cccc(OC)c2)N=C1C` (centres unmarked): -1.6%. Next, `COc1cccc(C2(C)SC(NC(C)=O)=NN2C(C)=O)c1` (centres unmarked): 0.813%. As to `Cc1cc(C)n2nc(SCC(=O)NCc3ccccc3Cl)nc2n1`, the “% Inhibition @ 10 uM” value is 2.79%.

As for `CCOc1cccc(/C=C2\NC(=O)N(Cc3ccc(Cl)cc3)C2=O)c1O`, the “% Inhibition @ 10 uM” value was -4.93%. For the compound `Cc1ccc2c(c1)-c1c(cnn1CC(=O)NCCCN1CCN(C)CC1)CO2`, the “% Inhibition @ 10 uM” value is on record as -4.17%. Regarding `Cc1ccccc1OCC(=O)Nc1ccc2ccccc2c1`, the “% Inhibition @ 10 uM” value was -4.06%. As to `O=C(C1CCCN(S(=O)(=O)c2cccc3nsnc23)C1)N1CCC2(CC1)OCCO2` (centres unmarked), the “% Inhibition @ 10 uM” value is -0.719%. Next, `CC(C)CC(C(=O)NCC#N)c1cccc(-c2ccc(S(=O)(=O)NCCN3CCOCC3)cc2)c1` (centres unmarked): -3.04%; `CCN(CC)S(=O)(=O)c1ccc(NC(=O)c2ccc(C(C)(C)C)cc2)cc1`: 6.15%; `CC1=CC2=NC(=O)/C(=C\c3cc(C)n(-c4ccc(F)cc4)c3C)C(=N)N2O1`: -7.05%. Next, `Nc1ccc2c(c1)C(=O)Cc1ccccc1S2`: -8.83%; `CC(NC(=O)Cn1nc(-c2ccccc2)ccc1=O)c1ccccc1` (centres unmarked): 0.514%.

Regarding `Cc1cccc2c1-c1sc(C(=O)NC3CCCCC3)cc1CO2`, the “% Inhibition @ 10 uM” value is recorded as -1.37%. In the case of `CCOc1ccccc1NC(=O)C(C)N(c1ccc(OC)cc1)S(C)(=O)=O` (centres unmarked), the “% Inhibition @ 10 uM” value was -3.18%. For `Cc1ccc(-n2nc3c(=O)n(CCCC(=O)N4CCC(C(N)=O)CC4)nc(C)c3c2C)cc1`, the “% Inhibition @ 10 uM” value is -0.307%.

On to `Cc1cccc(OCC(=O)N2CC3(C)CC2CC(C)(C)C3)c1C` (centres unmarked), for which the “% Inhibition @ 10 uM” value is on record as -3.51%. As for `CC(C)NC(=O)N1CCN(c2ccncc2S(=O)(=O)N2CCCCC2)CC1`, the “% Inhibition @ 10 uM” value is -10.2%.

With `N#CCNC(=O)C(CS(=O)(=O)Cc1ccccc1OC(F)F)c1cccc(-c2ccccc2)c1` (centres unmarked), the “% Inhibition @ 10 uM” value is listed as -3.49%. Regarding `CCN(Cc1ccccc1)C(=O)c1cc(C)[nH]n1`, the “% Inhibition @ 10 uM” value is -0.717%. As for `O=C(NC1CCCc2ccccc21)C1CCN(S(=O)(=O)c2ccc3nc(O)ccc3c2)CC1` (centres unmarked), the “% Inhibition @ 10 uM” value is recorded as -4.68%. To `O=C(/C=C\Nc1ccccc1Br)c1ccc2c(c1)OCO2` belongs -2.24%; to `O=C(NCCc1ccc(Cl)cc1)C1CCN(S(=O)(=O)c2cccs2)CC1`, -4.79%.

For `CC1=C(C(=O)Nc2ccc(F)cc2)C(c2cccc(Cl)c2)C2=C(O)CC(C)(C)CC2=N1` (centres unmarked), the “% Inhibition @ 10 uM” value is given as -0.864%. To `CCc1nc2ccccc2c(NC(=O)CNC(C)(C)CC(C)(C)C)c1C` belongs 3.21%; to `O=S(=O)(c1ccccc1)c1cccc2c1N=S=N2`, -5.28%; to `CC(C)(C)c1[nH]nc2c1C(c1ccncc1)C(C#N)=C(N)O2` (centres unmarked), -2.46%.

Turning to `CCOc1ccc(C=C2C(=O)OC3(CCCCC3)OC2=O)cc1OC`, the “% Inhibition @ 10 uM” value is reported as -5.08%. Next, `CC1=C(C(=O)Nc2ccccn2)C(c2ccc(N(C)C)cc2)C2=C(O)CCCC2=N1` (centres unmarked): -6.34%. As to `Cc1csc(NC(=O)C(=O)c2cc(C)n(-c3ccccc3F)c2C)n1`, the “% Inhibition @ 10 uM” value was -1.06%. Next, `COc1ccccc1Nc1nc(-c2ccc(C)cc2)c(C)s1`: 1.26%. Next, `CCc1ccccc1-n1nnc(-c2nc(-c3ccccc3C)no2)c1N`: 5.71%; `O=c1oc(-c2ccc(Br)cc2)nc2c1cnn2-c1ccccc1`: 3.05%. To `CC(C)SC1=NSC2=NC(=O)/C(=C\c3ccc(F)cc3)C(=N)N21` belongs 0.205%; to `Fc1cccc(-c2nn3c(Cn4nnc5ccccc54)nnc3s2)c1`, 2.89%.

On to `COc1ccc(NCC2CCCCC2)cc1OC`, for which the “% Inhibition @ 10 uM” value is reported as -5.44%. As for `COCCN1C(=O)C(O)=C(C(=O)c2ccc(OC)c(C)c2)C1c1cccc(Br)c1` (centres unmarked), the “% Inhibition @ 10 uM” value was -1.61%. Next, `O=C(c1ccc(Cl)cc1)n1c(=O)oc2cc(S(=O)(=O)N3CCCCC3)ccc21`: 2.32%. As to `O=C(N1CCOCC1)C(O)(c1ccccc1)c1ccccc1`, the “% Inhibition @ 10 uM” value is given as -2.03%. To `CN(C)c1nc(OC(C(F)(F)F)C(F)(F)F)nc(N(c2ccccc2)c2ccccc2)n1` belongs -2.51%; to `O=S(=O)(c1c[nH]cn1)N1CCCCCC1`, -0.499%. Next, `O=c1c2c(-c3ccccc3)csc2nc2n1CCCCC2`: -0.28%; `Cc1c(CC(=O)NCCc2ccc(F)cc2)c(=O)oc2cc(O)ccc12`: -0.808%; `CCCCNC(=O)COc1ccc(C)cc1`: 4.33%. Next, `COc1ccccc1CNC(=O)c1ccc(Br)o1`: 1.05%; `O=C1N=C(N2CCOCC2)S/C1=C\c1c2ccccc2cc2ccccc12`: 7.75%. As for `CCOc1ccc(C(=O)NCCN2CCCC2)cc1`, the “% Inhibition @ 10 uM” value is given as 3.53%. Next, `COc1cc2c(cc1OC)C(c1cc(OC)c(OC)c(OC)c1)N(C)CC2` (centres unmarked): -0.807%. To `CC(=O)c1cccc(NC(=O)COc2ccc(Cl)cc2Br)c1` belongs -3.26%. Next, `COc1ccc(Br)cc1CNC(=O)c1ccc2nc(N3CCCCC3)sc2c1`: 0.0882%; `CC(C)C[C@H](NC(=O)c1ccc(Oc2ccccc2)cc1)C(=O)NCC#N`: 0.174%; `COCCN(C(=O)c1sc2nc3n(c(=O)c2c1C)CCCCC3)C1CCN(C(C)=O)CC1`: -10.4%. Consider `CCC1CCCCN1CCCNC(=O)Cn1nc(-c2ccc(C)cc2)ccc1=O` (centres unmarked), for which the “% Inhibition @ 10 uM” value is given as -2.99%. For `Cc1cc(C)c(S(=O)(=O)NCCc2ccccc2)c(C)c1`, the “% Inhibition @ 10 uM” value was -4.91%. Next, `Cc1ccc(S(=O)(=O)N2CCC(C(=O)N3CCC4(CC3)OCCO4)CC2)cc1`: -1.34%; `COc1ccc(OC)c(NC(=O)c2cccnc2)c1`: 3.85%. Next, `Cc1ccccc1N1C(=O)C(Cl)=C(Nc2ccc(F)cc2)C1=O`: -0.99%; `COC(=O)/C(C#N)=C/c1c(Oc2ccc(C)cc2)nc2c(C)cccn2c1=O`: 3.63%. To `COc1ccccc1OC(C)C(=O)N(Cc1ccc(C)o1)C1CCS(=O)(=O)C1` (centres unmarked) belongs 2.19%.
